Reference: US20100330116A1, “LIVE […] USE AS VACCINE” (The University of Queensland, priority 2004, published 2010)

Tests used:
FD436 [1] = assay: MBC determination of nalidixic acid and rifampicin (growth on SBA plates)
Protocol: (§1) MIC was defined as the lowest concentration of antimicrobial agents which inhibits visible bacterial growth, and MBC is the lowest concentration of the agents which kills a defined proportion (usually 99.9%) of the bacterial population after incubation for a set time (Collins et al., Microbiological Methods pp 86, 114-115, 178-205, Butterworth-Heineman, Oxford, England, 1995). The broth dilution method was used for determining MIC. The method for determining MBC was an extension of the broth dilution method.
(§2) Two percent (w/v) nalidixic acid solution, or 1% (w/v) rifampicin solution, was added to TSB to make 2 ml of TSB media containing graded concentrations of nalidixic acid or rifampicin (0.04, 0.02, 0.01, 0.005, 0.0025, 0.00125, 0.000625 and 0.0003125% (w/v)). TSB media containing no antimicrobials were also prepared as controls. TSB medium was used instead of the conventionally recommended media for MIC and MBC determinations as metabolic-drift mutants may be more fastidious than their parent strains and thus may require highly nutritious media, such as TSB.
(§3) Turbidity (OD420-580) measured by Bioscreen and visual observation after 24 h incubation at 37° C. were the criteria used for assessing the growth of bacteria. FD436 was mixed with the above TSB media containing the graded concentrations of antimicrobials to make approximately 10^6 cfu/ml bacterial suspensions (the actual concentration was 9.6×10^5 cfu/ml). Inoculated and uninoculated TSB containing no antimicrobials were included as positive and negative controls, respectively. […] In addition, the remainder of the medium was incubated aerobically at 37° C. for 24 h for visual observation of turbidity. The MICs of the antimicrobials were determined based on the definition described previously. For determining the MBC, each medium containing antimicrobial concentrations above the MIC was diluted with TSB to the MIC, and 1 ml of each was pipetted directly onto an SBA plate and distributed with a sterile glass spreader. […] Colonies growing on the SBA were identified using the Salmonella identification procedure. The MBC of each antimicrobial was determined based on the definition described previously.

FD436 [2] = assay: MIC determination of nalidixic acid and rifampicin (broth dilution, Bioscreen turbidity); details: FD436, 37° C.
Protocol: as §1, §2, §3

[3] = TSB originally 0.0003125% (w/v) antimicrobial
[4] = TSB originally 0.000625% (w/v) antimicrobial
[5] = TSB originally 0.00125% (w/v) antimicrobial
[6] = TSB originally 0.005% (w/v) antimicrobial
[7] = TSB originally 0.01% (w/v) antimicrobial
[8] = TSB originally 0.02% (w/v) antimicrobial
[9] = TSB originally 0.04% (w/v) antimicrobial
[10] = 0.0003125% (w/v) antimicrobial in TSB
[11] = 0.000625% (w/v) antimicrobial in TSB
[12] = 0.00125% (w/v) antimicrobial in TSB
[13] = 0.005% (w/v) antimicrobial in TSB
[14] = 0.01% (w/v) antimicrobial in TSB
[15] = 0.02% (w/v) antimicrobial in TSB
[16] = 0.04% (w/v) antimicrobial in TSB

| Compound | Growth of Salmonella on SBA plates after 48-hour incubation (colonies) (FD436 [1]; [3]) | Growth of Salmonella on SBA plates after 48-hour incubation (colonies) (FD436 [1]; [4]) | Growth of Salmonella on SBA plates after 48-hour incubation (colonies) (FD436 [1]; [5]) | Growth of Salmonella on SBA plates after 48-hour incubation (colonies) (FD436 [1]; [6]) | Growth of Salmonella on SBA plates after 48-hour incubation (colonies) (FD436 [1]; [7]) | Growth of Salmonella on SBA plates after 48-hour incubation (colonies) (FD436 [1]; [8]) | Growth of Salmonella on SBA plates after 48-hour incubation (colonies) (FD436 [1]; [9]) | Turbidity of TSB media after 24-hour incubation measured using Bioscreen (FD436 [2]; [10]) | Turbidity of TSB media after 24-hour incubation measured using Bioscreen (FD436 [2]; [11]) | Turbidity of TSB media after 24-hour incubation measured using Bioscreen (FD436 [2]; [12]) | Turbidity of TSB media after 24-hour incubation measured using Bioscreen (FD436 [2]; [13]) | Turbidity of TSB media after 24-hour incubation measured using Bioscreen (FD436 [2]; [14]) | Turbidity of TSB media after 24-hour incubation measured using Bioscreen (FD436 [2]; [15]) | Turbidity of TSB media after 24-hour incubation measured using Bioscreen (FD436 [2]; [16]) | Growth of Salmonella on SBA plates after 48-hour incubation (colonies) (FD436 [1]; TSB originally 0.0025% (w/v) antimicrobial) | Turbidity of TSB media after 24-hour incubation measured using Bioscreen (FD436 [2]; 0.0025% (w/v) antimicrobial in TSB) |
| --- | --- | --- | --- | --- | --- | --- | --- | --- | --- | --- | --- | --- | --- | --- | --- | --- |
| CCn1cc(C(=O)O)c(=O)c2ccc(C)nc21 [Nalidixic acid] | P.G (P.G = profuse growth (greater than 1.0 × 10^3 colonies)) | P.G (P.G = profuse growth (greater than 1.0 × 10^3 colonies)) | N.G | N.G | N.G | 8 | 1 | + | + | − | − | − | − | − |  |  |
| CO[C@H]1/C=C/O[C@@]2(C)Oc3c(C)c(O)c4c(O)c(c(/C=N/N5CCN(C)CC5)c(O)c4c3C2=O)NC(=O)/C(C)=C\C=C\[C@H](C)[C@H](O)[C@@H](C)[C@@H](O)[C@@H](C)[C@H](OC(C)=O)[C@@H]1C [Rifampicin] | P.G (P.G = profuse growth (greater than 1.0 × 10^3 colonies)) | P.G (P.G = profuse growth (greater than 1.0 × 10^3 colonies)) | P.G (P.G = profuse growth (greater than 1.0 × 10^3 colonies)) | 5 | 1 | 1 | N.G | + | + | + | − | − | − | − | 6 | − |
